Results are given in words; binding and its absence hold for the method and conditions named. Binding seen in cells or lysates may run through a third protein. Some binding calls cover weakened binding; strength is not graded here.
Key:
[1] = biological target: c-Myc tagged MIRO1 KK (MIRO1 E208K/E328K, EF-hand mutant) (UniProt Q8IXI2); experiment: co-IP; c-Myc mouse antibody on Dynabeads Protein G precipitates c-Myc tagged MIRO1 constructs from whole-cell lysates of HEK cells (1 mg lysate, overnight, 4 °C); washing buffer 25 mM Tris HCl, 150 mM NaCl, 1% NP-40, 1 mM EDTA, 5% glycerol; eluted in LDS, immunoblot
[2] = biological target: c-Myc tagged MIRO1 (mitochondrial rho GTPase 1), wild type (UniProt Q8IXI2); experiment: as above
[3] = biological target: c-Myc tagged MIRO1 dnC (MIRO1 S432N, dominant-negative C-terminal GTPase domain) (UniProt Q8IXI2); experiment: as above
[4] = biological target: T1, PTPIP51, endogenous in mouse VSMCs (mouse (endogenous in aortic VSMCs)) (UniProt Q3UJU9); experiment: proximity ligation; Duolink in situ Red PLA on fixed (4% PFA), permeabilised (0.1% Tween) mouse VSMCs; WT and MIRO1-/- cells, synchronised by serum starvation (0 h) and 24 h and 48 h after release with 10% FBS; primary antibodies overnight at 4 °C; PLA signals counted with ImageJ
T1 sequence: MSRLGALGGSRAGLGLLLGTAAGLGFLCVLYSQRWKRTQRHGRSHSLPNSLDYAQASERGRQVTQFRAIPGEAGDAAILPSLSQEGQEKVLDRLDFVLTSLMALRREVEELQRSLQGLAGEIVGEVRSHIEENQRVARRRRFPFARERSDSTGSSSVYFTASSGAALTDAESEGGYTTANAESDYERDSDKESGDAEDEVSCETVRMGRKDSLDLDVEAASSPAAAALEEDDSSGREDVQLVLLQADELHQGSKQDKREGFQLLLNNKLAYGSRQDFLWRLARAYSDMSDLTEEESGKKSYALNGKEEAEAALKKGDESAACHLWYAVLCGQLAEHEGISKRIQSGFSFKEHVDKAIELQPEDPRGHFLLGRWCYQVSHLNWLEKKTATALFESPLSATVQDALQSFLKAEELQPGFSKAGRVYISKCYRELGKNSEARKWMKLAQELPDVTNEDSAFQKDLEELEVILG

Chains of the proteins cited; added tags and fusions are not shown. Lines headed by an entry give the natural chain unless they say otherwise; changes in a name come on top. Residues count along the entry.
UniProt Q8IXI2: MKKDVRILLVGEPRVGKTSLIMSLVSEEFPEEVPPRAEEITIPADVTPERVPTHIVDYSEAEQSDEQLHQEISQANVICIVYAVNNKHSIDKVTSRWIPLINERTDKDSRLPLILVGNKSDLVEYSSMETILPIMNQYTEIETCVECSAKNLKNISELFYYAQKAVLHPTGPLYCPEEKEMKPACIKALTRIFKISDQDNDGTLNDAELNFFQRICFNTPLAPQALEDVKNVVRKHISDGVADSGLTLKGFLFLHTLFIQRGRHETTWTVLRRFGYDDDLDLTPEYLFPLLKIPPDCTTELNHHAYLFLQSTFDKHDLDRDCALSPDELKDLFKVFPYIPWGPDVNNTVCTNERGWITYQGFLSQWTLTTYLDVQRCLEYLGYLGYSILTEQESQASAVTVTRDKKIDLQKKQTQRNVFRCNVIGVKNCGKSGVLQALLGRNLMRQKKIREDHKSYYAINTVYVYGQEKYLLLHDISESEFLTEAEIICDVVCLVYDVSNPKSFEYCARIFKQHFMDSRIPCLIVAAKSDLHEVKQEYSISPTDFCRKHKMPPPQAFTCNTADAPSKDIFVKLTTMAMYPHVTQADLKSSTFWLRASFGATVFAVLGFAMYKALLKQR
UniProt Q8BG51: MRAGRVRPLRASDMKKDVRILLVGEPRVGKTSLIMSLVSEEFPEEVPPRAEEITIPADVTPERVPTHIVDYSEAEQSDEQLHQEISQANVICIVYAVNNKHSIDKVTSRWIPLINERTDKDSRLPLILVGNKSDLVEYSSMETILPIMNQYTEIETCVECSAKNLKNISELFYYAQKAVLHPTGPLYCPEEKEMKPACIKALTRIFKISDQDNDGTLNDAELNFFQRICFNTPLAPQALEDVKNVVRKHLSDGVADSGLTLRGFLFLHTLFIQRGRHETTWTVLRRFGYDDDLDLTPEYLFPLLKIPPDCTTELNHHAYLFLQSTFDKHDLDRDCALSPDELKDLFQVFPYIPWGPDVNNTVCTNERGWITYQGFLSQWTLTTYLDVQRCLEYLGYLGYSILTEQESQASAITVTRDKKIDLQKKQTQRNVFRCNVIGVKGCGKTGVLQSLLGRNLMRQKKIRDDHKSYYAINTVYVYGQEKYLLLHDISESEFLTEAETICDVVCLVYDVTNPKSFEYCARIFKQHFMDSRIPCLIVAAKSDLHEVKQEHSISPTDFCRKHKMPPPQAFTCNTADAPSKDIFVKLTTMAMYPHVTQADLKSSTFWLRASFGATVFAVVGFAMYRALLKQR
UniProt P38646, residues 47-679: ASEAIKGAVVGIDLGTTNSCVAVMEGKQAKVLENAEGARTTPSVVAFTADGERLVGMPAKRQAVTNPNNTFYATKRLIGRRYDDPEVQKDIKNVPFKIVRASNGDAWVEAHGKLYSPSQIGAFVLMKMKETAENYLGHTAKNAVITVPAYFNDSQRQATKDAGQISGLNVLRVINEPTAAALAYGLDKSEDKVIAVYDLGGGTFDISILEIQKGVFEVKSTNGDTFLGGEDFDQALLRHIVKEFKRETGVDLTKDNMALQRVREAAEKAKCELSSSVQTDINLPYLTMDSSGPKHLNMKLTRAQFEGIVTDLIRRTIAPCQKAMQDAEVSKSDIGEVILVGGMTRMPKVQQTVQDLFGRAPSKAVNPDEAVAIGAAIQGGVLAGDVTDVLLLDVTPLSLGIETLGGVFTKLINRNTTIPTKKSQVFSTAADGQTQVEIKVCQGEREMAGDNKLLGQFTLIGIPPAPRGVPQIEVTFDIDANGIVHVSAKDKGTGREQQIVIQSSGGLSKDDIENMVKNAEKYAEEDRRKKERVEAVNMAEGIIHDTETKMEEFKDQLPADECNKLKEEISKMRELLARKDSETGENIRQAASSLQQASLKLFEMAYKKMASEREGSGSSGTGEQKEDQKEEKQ
UniProt Q8NE86, residues 51-351: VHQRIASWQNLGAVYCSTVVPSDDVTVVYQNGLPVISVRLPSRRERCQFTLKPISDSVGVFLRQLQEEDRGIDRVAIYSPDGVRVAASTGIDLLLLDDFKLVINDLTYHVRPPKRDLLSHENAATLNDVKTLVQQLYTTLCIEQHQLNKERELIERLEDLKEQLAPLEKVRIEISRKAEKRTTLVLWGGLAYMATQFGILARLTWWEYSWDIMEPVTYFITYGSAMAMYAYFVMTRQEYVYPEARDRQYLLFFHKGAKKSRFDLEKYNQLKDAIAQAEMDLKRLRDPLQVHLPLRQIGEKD
UniProt O95292: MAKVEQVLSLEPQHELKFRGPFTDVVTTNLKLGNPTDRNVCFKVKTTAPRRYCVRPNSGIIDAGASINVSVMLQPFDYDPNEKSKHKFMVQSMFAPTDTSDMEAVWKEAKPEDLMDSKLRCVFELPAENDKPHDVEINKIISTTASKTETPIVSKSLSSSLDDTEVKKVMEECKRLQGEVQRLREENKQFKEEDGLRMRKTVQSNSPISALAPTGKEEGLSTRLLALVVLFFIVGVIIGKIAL
UniProt P21796: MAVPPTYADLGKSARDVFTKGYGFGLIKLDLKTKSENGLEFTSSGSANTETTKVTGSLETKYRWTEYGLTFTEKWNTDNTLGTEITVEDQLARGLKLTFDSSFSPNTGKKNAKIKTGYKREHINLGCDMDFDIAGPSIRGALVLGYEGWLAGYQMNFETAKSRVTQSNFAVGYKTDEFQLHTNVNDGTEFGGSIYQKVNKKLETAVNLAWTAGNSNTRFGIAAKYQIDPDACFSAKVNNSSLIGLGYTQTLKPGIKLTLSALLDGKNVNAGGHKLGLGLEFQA
UniProt Q9QY76: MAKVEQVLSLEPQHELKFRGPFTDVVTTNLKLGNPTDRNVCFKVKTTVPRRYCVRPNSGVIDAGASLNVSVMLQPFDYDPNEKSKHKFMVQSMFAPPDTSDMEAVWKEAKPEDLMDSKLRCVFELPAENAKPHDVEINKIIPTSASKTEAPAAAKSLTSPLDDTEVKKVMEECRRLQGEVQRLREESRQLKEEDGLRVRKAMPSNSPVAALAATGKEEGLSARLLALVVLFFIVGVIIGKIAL
UniProt P38647, residues 47-679: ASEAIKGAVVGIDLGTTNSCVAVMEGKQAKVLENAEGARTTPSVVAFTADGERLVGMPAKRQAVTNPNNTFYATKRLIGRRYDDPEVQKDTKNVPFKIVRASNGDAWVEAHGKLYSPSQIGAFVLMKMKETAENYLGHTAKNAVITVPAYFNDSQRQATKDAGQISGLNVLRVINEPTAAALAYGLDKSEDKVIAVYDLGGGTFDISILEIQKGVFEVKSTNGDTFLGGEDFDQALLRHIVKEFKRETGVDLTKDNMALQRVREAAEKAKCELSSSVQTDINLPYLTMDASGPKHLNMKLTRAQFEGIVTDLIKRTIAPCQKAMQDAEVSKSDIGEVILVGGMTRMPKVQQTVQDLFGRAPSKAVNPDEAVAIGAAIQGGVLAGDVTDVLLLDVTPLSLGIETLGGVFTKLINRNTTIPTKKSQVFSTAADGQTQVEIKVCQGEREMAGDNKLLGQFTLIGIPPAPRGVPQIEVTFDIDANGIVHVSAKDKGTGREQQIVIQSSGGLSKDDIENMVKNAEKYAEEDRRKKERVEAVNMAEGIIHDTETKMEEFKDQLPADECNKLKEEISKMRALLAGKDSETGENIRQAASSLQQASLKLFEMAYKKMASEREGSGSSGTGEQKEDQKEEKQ

[5] = biological target: MIRO1 (mitochondrial rho GTPase 1), endogenous in mouse VSMCs (mouse (endogenous in aortic VSMCs)) (UniProt Q8BG51); experiment: as above

binding [1]	binding [2]	binding [3]	Substance	further results
binds weakly	binds	binds	GRP75 (glucose-related protein 75), endogenous in HEK cells (from UniProt P38646 47-679)	–
binds weakly	binds	binds	MCU (mitochondrial Ca2+ uniporter), endogenous in HEK cells (from UniProt Q8NE86 51-351)	–
–	no binding	–	VAPB, endogenous in HEK cells (from UniProt O95292 1-243)	–
–	no binding	–	VDAC1 (voltage-dependent anion channel 1), endogenous in HEK cells (from UniProt P21796 1-283)	–
–	–	–	VAPB, endogenous in mouse VSMCs (from UniProt Q9QY76 1-243)	binding [4]: binds
–	–	–	GRP75, endogenous in mouse VSMCs (from UniProt P38647 47-679)	binding [5]: binds
